Consider 58 compounds from paper PMC4336329 (PLoS ONE, 2015).

Screen size: about 310,000 compounds; about 14,000 (4.5%) showed an effect of 50% or more. The effect is printed as a negative number. Some of the results follow.
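Note: peak tail current of the secondary pulse compared with the same well before compound.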

For this assay, the target named is human ether-à-go-go-related gene (hERG) potassium channel (human, UniProt Q12809). The experiment in a line: primary screen, population patch clamp on CHO cells stably expressing hERG.
Sequence of human ether-à-go-go-related gene (hERG) potassium channel (Q12809 whole entry, looked up): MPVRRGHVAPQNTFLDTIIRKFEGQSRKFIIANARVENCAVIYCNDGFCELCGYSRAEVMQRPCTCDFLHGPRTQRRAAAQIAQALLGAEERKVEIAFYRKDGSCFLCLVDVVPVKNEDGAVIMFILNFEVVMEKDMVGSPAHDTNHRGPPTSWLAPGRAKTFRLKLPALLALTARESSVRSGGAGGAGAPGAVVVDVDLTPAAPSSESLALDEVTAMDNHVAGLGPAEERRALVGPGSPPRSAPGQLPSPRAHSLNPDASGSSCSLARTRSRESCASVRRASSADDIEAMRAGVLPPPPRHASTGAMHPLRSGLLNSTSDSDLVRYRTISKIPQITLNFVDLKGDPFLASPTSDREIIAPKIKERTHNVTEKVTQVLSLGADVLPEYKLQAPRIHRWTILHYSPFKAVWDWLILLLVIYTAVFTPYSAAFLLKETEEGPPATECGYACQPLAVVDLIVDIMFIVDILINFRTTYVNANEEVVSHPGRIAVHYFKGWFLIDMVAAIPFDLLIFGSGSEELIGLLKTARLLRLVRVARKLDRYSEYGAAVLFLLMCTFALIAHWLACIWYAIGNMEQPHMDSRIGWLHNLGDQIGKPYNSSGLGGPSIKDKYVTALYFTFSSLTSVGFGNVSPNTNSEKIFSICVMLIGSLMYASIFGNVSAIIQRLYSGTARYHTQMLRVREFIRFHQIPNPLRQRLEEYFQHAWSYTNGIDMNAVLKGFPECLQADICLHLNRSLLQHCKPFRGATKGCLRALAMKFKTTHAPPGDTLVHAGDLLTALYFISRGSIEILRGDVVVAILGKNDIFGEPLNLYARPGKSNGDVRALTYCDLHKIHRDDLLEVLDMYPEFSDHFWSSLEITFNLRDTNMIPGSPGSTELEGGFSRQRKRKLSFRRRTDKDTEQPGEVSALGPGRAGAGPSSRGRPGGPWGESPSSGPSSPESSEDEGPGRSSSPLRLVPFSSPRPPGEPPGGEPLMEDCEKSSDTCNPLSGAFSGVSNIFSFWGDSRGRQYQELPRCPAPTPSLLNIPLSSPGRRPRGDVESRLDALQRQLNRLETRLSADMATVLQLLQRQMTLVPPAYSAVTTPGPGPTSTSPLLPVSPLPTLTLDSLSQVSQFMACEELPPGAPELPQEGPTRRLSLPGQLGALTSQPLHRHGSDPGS
In the case of `COc1cc(C(=O)NCC(=O)NCCCSc2ccccc2)cc(OC)c1OC`, the “hERG current change (%, negative = inhibition) at 10uM” value is -9.35%.

`CCOc1ccc(NC(=O)CSc2nnc(Cc3ccccc3)c(=O)n2N)cc1`: the “hERG current change (%, negative = inhibition) at 10uM” value came out at 17.1%.

As to `O=C(CN1CCN(Cc2ccccc2)CC1)NCC1COc2ccccc2O1` (stereo not shown), the “hERG current change (%, negative = inhibition) at 10uM” value is on record as -43.8%.

Turning to `COc1ccc(Cl)cc1NC(=O)CN(C)C(=O)c1cc2ccccc2cc1OC`, the “hERG current change (%, negative = inhibition) at 10uM” value is recorded as -7.19%.

Consider `CC(C)N(C(=O)Cn1c(-c2ccccc2Cl)nc2ccccc21)c1ccccc1`, for which the “hERG current change (%, negative = inhibition) at 10uM” value was -17.9%.

On to `Clc1ncnc2scc(C3COc4ccccc4O3)c12` (stereo not shown), for which the “hERG current change (%, negative = inhibition) at 10uM” value is -2.46%.

Consider `COCCSc1ccccc1C(=O)N1CCCC1`, for which the “hERG current change (%, negative = inhibition) at 10uM” value came out at 3.39%.

Take `O=C1c2ccccc2C(=O)N1CCn1ccnc1`: the “hERG current change (%, negative = inhibition) at 10uM” value is 20.2%.

In the case of `COc1ccc(C(=O)COC(=O)c2ccccc2O)c(OC)c1`, the “hERG current change (%, negative = inhibition) at 10uM” value turned out to be 8.01%.

As to `CCOC(=O)C1(CCCc2ccccc2)CCN(C(=O)CCN2CCCCC2=O)CC1`, the “hERG current change (%, negative = inhibition) at 10uM” value is -62.8%.

For the compound `Cc1sc2ncnc(Sc3nnc4sc5ccccc5n34)c2c1C`, the “hERG current change (%, negative = inhibition) at 10uM” value came to 0.406%.

Regarding `CN1C(C(=O)NCCc2cccs2)CC2Cn3c(nc4ccccc43)C21` (stereo not shown), the “hERG current change (%, negative = inhibition) at 10uM” value is -27.3%.

Take `CCOC(=O)C1=C(C)NC(SCC(=O)Nc2cc(C)on2)=C(C#N)C1c1cccs1` (stereo not shown): the “hERG current change (%, negative = inhibition) at 10uM” value is 5.13%.

Turning to `COc1nc(-c2ccccc2)ccc1-c1noc(-c2ccccc2)n1`, the “hERG current change (%, negative = inhibition) at 10uM” value worked out at 4.55%.

Turning to `O=C(/C=C/c1ccc(Cl)cc1)NC1CCS(=O)(=O)C1` (stereo not shown), the “hERG current change (%, negative = inhibition) at 10uM” value was -58.7%.

As for `CN=c1sc2ccccc2n1CC(O)COc1ccccc1` (stereo not shown), the “hERG current change (%, negative = inhibition) at 10uM” value is -57.5%.

Regarding `COc1ccc2oc(=O)c(C(=O)NCc3ccccc3)cc2c1`, the “hERG current change (%, negative = inhibition) at 10uM” value is -0.716%.

`Cc1ccc(-c2noc(CCC(=O)NC3CC3)n2)cc1`: the “hERG current change (%, negative = inhibition) at 10uM” value is on record as 0.431%.

`CCOC(=O)C1CCN(CCC(=O)Nc2ccc(Br)c(C)c2)CC1`: the “hERG current change (%, negative = inhibition) at 10uM” value is recorded as -62.8%.

Regarding `O=C(Nc1cc(C(F)(F)F)ccc1-n1cncn1)C1CC1`, the “hERG current change (%, negative = inhibition) at 10uM” value is given as 11.8%.

For the compound `O=C(Nc1ccc(S(=O)(=O)Nc2nccs2)cc1)C1CC(=O)N(c2ccccc2)C1` (stereo not shown), the “hERG current change (%, negative = inhibition) at 10uM” value is 19.6%.

In the case of `COc1ccc(CC(=O)Nc2ccc(S(=O)(=O)N(C)C)cc2)cc1OC`, the “hERG current change (%, negative = inhibition) at 10uM” value amounted to 10.4%.

With `O=C(/C=C/Nc1ccccc1)c1ccc(Oc2ncccn2)cc1`, the “hERG current change (%, negative = inhibition) at 10uM” value is -1.1%.

On to `CC(C)(C)n1nnnc1C(c1cccs1)N1CCN(C(=O)c2ccco2)CC1` (stereo not shown), for which the “hERG current change (%, negative = inhibition) at 10uM” value was -33%.

With `COc1ccccc1N1CCN(CC(=O)c2ccc(F)cc2)CC1.Cl`, the “hERG current change (%, negative = inhibition) at 10uM” value came to 15.7%.

`O=C(COC(=O)c1cc([N+](=O)[O-])ccc1N1CCOCC1)Nc1c(Cl)cccc1C(F)(F)F`: the “hERG current change (%, negative = inhibition) at 10uM” value was -6.31%.

In the case of `Cc1cccc(C2=NOC(=O)/C2=C\c2ccccc2F)c1`, the “hERG current change (%, negative = inhibition) at 10uM” value is listed as 9.48%.

Regarding `COc1ccc(C2CC(=O)Oc3ccc(C(C)(C)C)cc32)cc1` (stereo not shown), the “hERG current change (%, negative = inhibition) at 10uM” value is listed as -0.188%.

In the case of `O=C(O)CCCN1C(=O)C2C3C=CC(C2C1=O)C1C(=O)N(CCCC(=O)O)C(=O)C31` (stereo not shown), the “hERG current change (%, negative = inhibition) at 10uM” value was determined as 9.89%.

As for `CC(C)c1ccc(NC(=O)NC(C)c2ccc3c(c2)OCO3)cc1` (stereo not shown), the “hERG current change (%, negative = inhibition) at 10uM” value amounted to 0.863%.

In the case of `OCCn1c(SCCOc2ccccc2)nc2ccccc21`, the “hERG current change (%, negative = inhibition) at 10uM” value is -21.3%.

For the compound `C=CCN1C(=O)C(Cc2ccccc2)S/C1=N/N=C/c1cccs1` (stereo not shown), the “hERG current change (%, negative = inhibition) at 10uM” value turned out to be 8.44%.

Regarding `O=C(Cn1nnc(-c2ccc3c(c2)OCO3)n1)Nc1ccccc1C(=O)O`, the “hERG current change (%, negative = inhibition) at 10uM” value was 19.3%.

Turning to `COc1cc2c(cc1OC)C1(CCCCC1)CN(C)C2.Cl`, the “hERG current change (%, negative = inhibition) at 10uM” value was -7.45%.

In the case of `COc1cc(NC(=O)C2CCCO2)c(C(=O)O)cc1OC` (stereo not shown), the “hERG current change (%, negative = inhibition) at 10uM” value was 15.8%.

With `CC(C)(C)NC(=O)c1ccc(Cn2cc(C(F)(F)F)ccc2=O)cc1`, the “hERG current change (%, negative = inhibition) at 10uM” value is listed as 10.9%.

In the case of `COc1ccc(Cn2c(=O)[nH]c3cc(C(=O)N4CCN(c5ccccc5OC)CC4)ccc3c2=O)cc1`, the “hERG current change (%, negative = inhibition) at 10uM” value is 6.67%.

For `Cc1ccc(-c2nn(CC(=O)NCc3cc(-c4nn(C)c(=O)c5ccccc45)ccc3C)c(=O)c3ccccc23)cc1`, the “hERG current change (%, negative = inhibition) at 10uM” value is given as -17%.

For the compound `C/C(=N\Nc1nc2ccccc2[nH]1)c1ccc(C)o1`, the “hERG current change (%, negative = inhibition) at 10uM” value is -17.7%.

For `C=CCNC(=O)C1CC1(c1cccc(C)c1)c1cccc(C)c1` (stereo not shown), the “hERG current change (%, negative = inhibition) at 10uM” value is recorded as 6.03%.

For the compound `O=C1CS/C(=N/N=C2C3CC4CC(C3)CC2C4)N1`, the “hERG current change (%, negative = inhibition) at 10uM” value is recorded as -11.8%.

Regarding `Cc1cc(NC(=O)CC(C)C)c(=O)n(Cc2c(F)cccc2Cl)c1`, the “hERG current change (%, negative = inhibition) at 10uM” value is -10.9%.

In the case of `O=C(Nc1ccccn1)c1ccc(C(=O)Nc2ccccn2)cc1`, the “hERG current change (%, negative = inhibition) at 10uM” value is given as 7.84%.

Take `N/C(=N\OC(=O)c1ccc(Cl)c(Cl)c1)c1cccc(CSc2ccccn2)c1`: the “hERG current change (%, negative = inhibition) at 10uM” value was determined as 2.93%.

On to `NC(=S)N/N=C/c1c[nH]c2ccccc12`, for which the “hERG current change (%, negative = inhibition) at 10uM” value is on record as -10.9%.

Take `CCNc1nc(Oc2ccc(=O)n(C)n2)nc(N2CCOCC2)n1`: the “hERG current change (%, negative = inhibition) at 10uM” value is 13.3%.

In the case of `Cc1ccc(-n2ncc3c(=O)n(CC(=O)NC4CCCCC4)cnc32)cc1C`, the “hERG current change (%, negative = inhibition) at 10uM” value is listed as 6.16%.

Turning to `CCC(C)NC(=O)c1c(N)n(Cc2ccc3c(c2)OCO3)c2nc3ccccc3nc12` (stereo not shown), the “hERG current change (%, negative = inhibition) at 10uM” value is reported as -11.7%.

As for `Cc1ccc(NC(=O)N2CCC(C(=O)Nc3ccc(C)cc3C)CC2)cc1`, the “hERG current change (%, negative = inhibition) at 10uM” value is 13.8%.

Take `C#CC[N+]1(CC#Cc2ccc(C)cc2)CCCCC1.[Br-]`: the “hERG current change (%, negative = inhibition) at 10uM” value is given as 4.84%.

For the compound `Cc1cc(C(=O)N/N=C/c2cc(Br)c(Br)o2)n[nH]1`, the “hERG current change (%, negative = inhibition) at 10uM” value worked out at 16%.

For the compound `N#C/C(=C\c1cc(Cl)cc(Cl)c1O)C(=O)NC1CCCCC1`, the “hERG current change (%, negative = inhibition) at 10uM” value is -12%.

For `Cc1ccc(S(=O)(=O)NN=C2C3CC4CC(C3)CC2C4)cc1`, the “hERG current change (%, negative = inhibition) at 10uM” value is recorded as 2.47%.

In the case of `N#Cc1cccn1-c1nccs1`, the “hERG current change (%, negative = inhibition) at 10uM” value worked out at 6.96%.

`COc1ccc2ccccc2c1CN1CCN(C(=O)c2ccccc2)CC1`: the “hERG current change (%, negative = inhibition) at 10uM” value was -22.8%.

Take `CCOc1cc(NC(=S)NCC2CCCO2)c(OCC)cc1NC(=O)C1CC1` (stereo not shown): the “hERG current change (%, negative = inhibition) at 10uM” value amounted to 36.2%.

In the case of `Cc1ccc(-c2nc(CN(C)C3CCOC3)c(C)o2)s1` (stereo not shown), the “hERG current change (%, negative = inhibition) at 10uM” value is 19.7%.

Regarding `Cc1cc(C)cc(OCC(=O)N(Cc2ccc(N(C)C)cc2)C2CCS(=O)(=O)C2)c1` (stereo not shown), the “hERG current change (%, negative = inhibition) at 10uM” value is recorded as -20%.
